# Measured values reported in the supplement of paper PMC3334620.
# The full ranking holds about 33,000 sequences; the median of “E-score (-0.5 to 0.5)” is about -0.054, and the highest 2% start at about 0.35. The list shows a part of the results.
# Molecular target: T1, Stb5 (UniProt P38699)
# T1 sequence: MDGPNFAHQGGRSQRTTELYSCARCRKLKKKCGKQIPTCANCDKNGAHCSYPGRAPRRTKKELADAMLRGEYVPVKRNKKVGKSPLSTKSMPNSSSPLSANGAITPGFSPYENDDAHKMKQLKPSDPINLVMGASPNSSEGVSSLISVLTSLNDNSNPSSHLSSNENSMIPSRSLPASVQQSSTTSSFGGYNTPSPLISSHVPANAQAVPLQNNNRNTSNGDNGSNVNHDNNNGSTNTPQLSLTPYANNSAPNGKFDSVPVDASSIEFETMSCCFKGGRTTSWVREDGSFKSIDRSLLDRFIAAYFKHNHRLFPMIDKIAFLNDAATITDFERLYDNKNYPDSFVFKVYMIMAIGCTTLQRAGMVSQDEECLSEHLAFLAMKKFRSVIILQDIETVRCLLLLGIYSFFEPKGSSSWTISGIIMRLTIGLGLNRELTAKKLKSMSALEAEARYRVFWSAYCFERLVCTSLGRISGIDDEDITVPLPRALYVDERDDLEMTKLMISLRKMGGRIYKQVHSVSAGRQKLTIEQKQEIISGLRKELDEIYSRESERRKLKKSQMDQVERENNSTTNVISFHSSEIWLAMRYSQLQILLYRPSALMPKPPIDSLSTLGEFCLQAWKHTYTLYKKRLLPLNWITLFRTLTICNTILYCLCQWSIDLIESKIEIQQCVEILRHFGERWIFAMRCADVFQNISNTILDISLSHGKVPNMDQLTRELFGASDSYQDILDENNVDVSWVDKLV
# Test: PBM E-score (8-mer binding enrichment) (E-score (-0.5 to 0.5)); higher = stronger / more preferred TF binding; most listed sequences are background and not binding sites
# Conditions: protein concentration: 200 nM; construct: GST-full length
# Description: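 Universal 'all 10-mer' protein binding microarrays (Agilent AMADID 015681) probed with GST-tagged S. cerevisiae TFs (full-length or DBD) made by in vitro transcription/translation (PURExpress), about 100-200 nM. Bound TF was detected with fluorescent anti-GST. Each ungapped 8-mer (which stands for itself and its reverse complement) is scored by the PBM enrichment score (E-score), a modified Wilcoxon-Mann-Whitney statistic from -0.5 to +0.5, computed with the Universal PBM Analysis Suite. Scale: above 0.35 generally sequence-specific binding.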
row,Sequence,PBM E-score
1,AAATCACC,0.245
2,AATCCGCT,0.177
3,GCACAGGA,-0.175
4,GTCAAAGA,-0.189
5,GGTCTGCA,0.178
6,CGCTACGC,0.178
7,ACGCTCAT,-0.149
8,ATTTCGGG,0.13
9,AAAGGGAC,-0.0879
10,ACTGGTAT,-0.105
11,CTTTATAA,0.219
12,ACTCGACA,-0.0355
13,CTACGATC,-0.223
14,ACAATTGC,-0.0403
15,ACATTTAC,-0.168
16,CGGCGTAG,0.13
17,ACCGGGTC,0.19
18,CTAAAGGC,-0.135
19,GGGCATAC,0.203
20,CGTTTTTA,0.0655
21,CCTAGTGA,0.059
22,ATTCAGAC,-0.201

row,Sequence,PBM E-score
1,CTCTGTCA,-0.208
2,GTTTCATA,0.0002
3,ATTTCAGA,-0.163
4,CGCAACGA,-0.0209
5,AACTTCGG,0.107
6,CAGATGCG,-0.153
7,TTCGGCAA,0.15
8,CTCAAAAA,-0.0307
9,AAACTAGG,0.0203
10,GTTGAACA,-0.121
11,GGTCCCCA,-0.107
12,TAAGAAAA,-0.226
13,CGTTCCAA,0.081
14,CCACAAAC,0.0338
15,GCCCGTAC,0.157
16,AGCCCTCA,-0.114
17,CTATCAAA,-0.182
18,TCAAGCCA,-0.184
19,CTCCGGGC,0.118
20,CCCCGAGC,0.2
21,AGATGCTG,-0.279
22,GAAAGGTA,-0.212

row,Sequence,PBM E-score
1,GCGTGCCC,-0.139
2,CCTAGAGA,-0.26
3,CCTACGAG,-0.261
4,TCGGCGCA,0.157
5,GCAGCTGC,-0.0296
6,CTAGTGTA,-0.134
7,AAAAACCC,0.226
8,GATGCTCC,0.00234
9,GGTCTGAC,0.0773
10,CTGTCCAA,-0.0726
11,CGAAAGTA,-0.00846
12,CTTACTTC,-0.0525
13,CCACCCTA,-0.157
14,GGGCGCCA,-0.0493
15,GACTCGGA,0.151
16,CCATTTCG,-0.0141
17,AACATAAC,-0.0581
18,CCGATTAG,0.283
19,CCATTTAG,-0.132
20,ATCCTGGG,-0.243
21,TCTTGTAA,-0.0733
22,CACCTGGA,-0.251

row,Sequence,PBM E-score
1,ACGGAAGG,0.08
2,CTCGGTTA,0.0761
3,CTTTAATC,0.00719
4,CAAGGGAA,-0.128
5,GACTGTCA,-0.046
6,TATAGCAA,0.0118
7,CAGAAGTC,-0.0591
8,GTCTTAAA,0.179
9,ACCGCGCC,0.288
10,CACGAAAG,0.0262
11,AGTGAACC,-0.181
12,CATACGTC,0.147
13,GGCGTCCC,0.132
14,ATAATCTA,0.0554
15,CGCCCTAA,0.0416
16,CAGCCAGC,-0.167
17,ATAAGACC,0.397
18,ACCGGCCT,0.22
19,AACCTTGA,-0.247
20,CGCCGGAA,0.168
21,GACACCAA,-0.124
22,CTGTCCCC,-0.0582

row,Sequence,PBM E-score
1,ATCCCCGC,0.453
2,AAGCCAGG,-0.0808
3,GATTATAC,0.138
4,ATAGGTGA,-0.0836
5,CTACTCGC,-0.149
6,TGCTGCAA,-0.177
7,CCGACCAG,0.318
8,CCGGAACC,0.217
9,CAGAGCAA,-0.231
10,CTGGTGCA,-0.122
11,CATGACTC,-0.0657
12,TCCCCCAA,-0.235
13,TGGCGGAA,0.176
14,CTGTGATC,-0.187
15,ACCGGAAA,0.221
16,GGATTTAA,0.346
17,AAATCTAT,0.00591
18,GCCCATAC,-0.237
19,CTAAGCGC,0.0471
20,CAGCCTGC,-0.236
21,ACAAGCAA,-0.0486
